± gives the standard deviation of the averaged measurements. Whole data set: some 4,100 sequences, median “arbitrary fluorescence units” near 780, cut for the highest 2% near 22,000. The list shows a part of the results.

In the assay the target is T1, ETS1 (UniProt P14921).
T1 sequence: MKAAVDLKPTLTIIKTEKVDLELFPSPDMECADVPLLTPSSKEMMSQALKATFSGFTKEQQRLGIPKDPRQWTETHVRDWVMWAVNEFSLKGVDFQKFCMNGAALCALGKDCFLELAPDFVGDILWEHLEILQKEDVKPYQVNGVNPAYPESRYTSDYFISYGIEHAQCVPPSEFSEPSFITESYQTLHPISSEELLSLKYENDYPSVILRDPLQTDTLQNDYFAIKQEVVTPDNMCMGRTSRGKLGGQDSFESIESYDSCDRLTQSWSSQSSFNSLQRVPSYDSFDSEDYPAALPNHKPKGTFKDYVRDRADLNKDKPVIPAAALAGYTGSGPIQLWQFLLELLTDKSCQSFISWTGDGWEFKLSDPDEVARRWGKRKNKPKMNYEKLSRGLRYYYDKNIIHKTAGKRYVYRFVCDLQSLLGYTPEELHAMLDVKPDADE
Put plainly: ETS1 binding intensity (PBM fluorescence), ETS1 alone (arbitrary fluorescence units); higher = stronger binding. To be noted: ETS1 concentration 1 nM; RUNX1 concentration 0 nM. The procedure, abridged:
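Recombinant full-length human ETS1 was applied at 1 nM, without RUNX1, to double-stranded Agilent 4 × 180k arrays of 36-bp genomic probes carrying a mutated RUNX1 partner site, following standard PBM protocols. Detection used an anti-ETS1 antibody (Cell Signaling Technology 14069) and an Alexa488-conjugated secondary antibody, with scanning on a GenePix 4400A. Each sequence was printed as four replicate spots. Binding level is the spot fluorescence intensity, summarised across replicates and not normalised.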
Regarding TTGGGGTTGCCGGGGATCGCTGTTGCCATCCTGACT, the ETS1 binding intensity came out at 378.

As to GCTGCGCAGAGGAAACCAGGCTTGTTGGTGTTCATG, the ETS1 binding intensity was determined as 412.

Sequence GAGTTCCGCCTCGCCGTTTGTCCCTTACGGTACCCG showed an ETS1 binding intensity of 2490.

TCGGCTGCAGGAAAGGCACGCCGTCTCCCTCTTGGC: the ETS1 binding intensity turned out to be 341.

With CTGCACTTCCGGTCAGGCGGTCGGGCTGAGGGGCCC, the ETS1 binding intensity stood at 36600.

ACTACAGGAGGAAACTACAGCCTAAACTACATGCAA registered an ETS1 binding intensity of 534.

Regarding GTCCCTTGGGGCTACACAGGCAGGAAGCAGGTGGCA, the ETS1 binding intensity is 767.

For the sequence AAAGAATGTTACGGCCAGAGAGCATCCGCTGTCGCT, the ETS1 binding intensity worked out at 812.

Turning to CTCAGAGCTGCGGAAACTACAACTCCCACTAGGCTG, the ETS1 binding intensity was 529.

As for GGAGCAGAGACCTCGATTACTCAACAGGAAAGAGAG, the ETS1 binding intensity stood at 405.

The sequence TCCCACTGCGACGGAAGCACAGCGGCTAAGATTGCA registered an ETS1 binding intensity of 558.

As for AGATGAGGAAGTTGGGGTTTAGAGTGCTTAAACTGT, the ETS1 binding intensity was found to be 1200.

For GATATGCAGAAATCCAACCTACAGGAAGGTGAGTCA, the ETS1 binding intensity was determined as 416.

In turn, TTATCCACTGTTCTCTAAATACTGTACATCCTTTAT gave an ETS1 binding intensity of 684.

In the case of GCAGCGTTTCCTTCCACGGCAGCGGCAGCGGGCGCT, the ETS1 binding intensity was 2300.

The sequence GCGCAACGAACAGCAGGTACCGGAAGAGCACACTTC had an ETS1 binding intensity of 2160.

In turn, CCCTTCTTCCTGGGTCCTCCAATTGCTACAGCGCGC showed an ETS1 binding intensity of 2570.

The sequence CACTTCCTCCTCGGGGGCCTCAGAAAATCACAGGGC came in with an ETS1 binding intensity of 13200.

TCCCGGGAGCGGATTTAGGGGGCCGCTTCCTTGGCC registered an ETS1 binding intensity of 435 ± 20.

Take GCCTCGCGGCGCAGGCCGCTCCCGGATGTGTGCCTG: the ETS1 binding intensity is 528.

As to GACACCCAGGCCGCTGGCACTTCCCACCCCACCCCA, the ETS1 binding intensity was 374.

AAAAACAAGGAAGCCTGAAGGGAAGGCGGGTGAAAA: the ETS1 binding intensity was determined as 497.

Sequence CACCTTGTAGTTTCTCTGAGTGTCACACATCCCCAG yielded an ETS1 binding intensity of 581.

Consider CTCTGAACCCCATGATCTCTAAGACCACTTCCTGTT, for which the ETS1 binding intensity was 2780.

For the sequence TTAGGACCCAGCGGAGGGCTCTCCGGAAGGGGAAGG, the ETS1 binding intensity amounted to 387.

As for CCAGCACTCCCCCAAGCCGCCGGAAGTCAACTCTCC, the ETS1 binding intensity amounted to 2960.

The sequence CACCTGCCCAGCCGCCAGCTTCCTTTCTCATTCTTG displayed an ETS1 binding intensity of 701.

As to GGCTACGGAAACTCGCGAGAGCGAGGTTCAGAGGCA, the ETS1 binding intensity came to 462.

The sequence CAGCCGCCGACTTCCCCAGTAGTAACGCGCCGCTCC came in with an ETS1 binding intensity of 885.

With ACAATGAGTGCTTTTCTGAAGTTCCGGACCATCTGT, the ETS1 binding intensity turned out to be 511.

Take CCCACAGGAAATCCCCTGGTCCGTGGCGCCTCTGAT: the ETS1 binding intensity is 3150.

As for CGTGGCGGAAGCCGCGGGGACAGCGGGGGCGGAGTG, the ETS1 binding intensity was determined as 1560.

With GTAAGAACTACAACCCCTCGAGAGGAAGCACTTTTG, the ETS1 binding intensity was determined as 442.

CTGAGCCACCGAAGCCAGTCTTTTATGCATCCGGCG displayed an ETS1 binding intensity of 487.

The sequence CTGCAGCGGGGGCTGACATCACAGCAAGGAAACTGT showed an ETS1 binding intensity of 523.

For the origin of these results see the supplement of paper PMC10681739.
